# Experimental data as given in ChEMBL document CHEMBL4888484, “Replenishing the malaria drug discovery pipeline: Screening and hit evaluation of the MMV Hit Generation Library 1 (HGL1) against asexual blood stage Plasmodium falciparum ,using a nano luciferase reporter read-out” (2022).
# Hit rate of the full screen: of about 150,000 compounds, about 540 (0.36%) showed an effect of 50% or more. Some of the results follow.
# Tested on: Plasmodium falciparum
# Test: Primary screen in NF54 nanoGlo assay, in single point, at 2uM, 72h; a lower Z score goes with more inhibition
# Format: functional, Erythrocyte
# Settings: timepoint 72 hour
SMILES,% Inhibition [%],Z score
Cc1nc(C(=O)N2CCOC3CC(N(C)C)CCC32)nn1-c1ccc(Cl)cc1 (stereo unspecified),2,-0.26
Cn1c(CN2CC[C@H](NC(=O)c3cnccn3)[C@@H](O)C2)cc2ccccc21,-6,0.84
COc1ncccc1C(=O)NC[C@H](O)COc1ccc(F)cc1,-8,1.28
NC(=O)CC1CCCCN1c1ncnc2c1ncn2CC1(O)CCOC1 (stereo unspecified),-21,2.76
O=C1c2ccc(C(c3ccc4c(c3)C(=O)N(c3ccc(Oc5ccccc5)cc3)C4=O)(C(F)(F)F)C(F)(F)F)cc2C(=O)N1c1ccc(Oc2ccccc2)cc1,-9,1.22
Cc1noc(C)c1C1CCCN1C(=O)NCC1CCCO1 (stereo unspecified),-5,0.71
Cc1cc(NC(=O)N[C@H]2C[C@@H](OC(C)C)C2)no1,6,-0.76
NC(=O)c1cccc(C(=O)OC[C@H]2CCN(c3ccccc3)C2)c1,-14,2.03
Cc1cnc(C2CCC2)n1CCNC(=O)CN1CCOCC1,-4,0.5
Cc1csc(Cl)c1NC(=O)NCc1ccccc1CC(F)(F)F,-5,1.06
O=C(N1CCCC(Nc2cccc(Br)c2)C1)C1(O)CCOC1 (stereo unspecified),1,-0.15
O=C1C2N=NN(Cc3nc(-c4ccccc4)no3)C2C(=O)N1c1cccc(Cl)c1 (stereo unspecified),-2,0.23
OC1CCC1NCc1cc(F)cc(F)c1 (stereo unspecified),-3,0.32
Cc1nc(NC(=O)C[C@H]2CCS(=O)(=O)C2)sc1C,-11,1.51
CCOC1CC(Nc2ccc3nnnn3n2)C12CCCCC2 (stereo unspecified),-15,2.01
CCC1CCCCC1OCC(=O)Nc1cc(N(C)C)ncn1 (stereo unspecified),-14,2.25
CC(=O)N1CCN(C(=O)c2cccc(Cl)c2Cl)[C@H]2CS(=O)(=O)C[C@H]21,-3,0.29
Cc1[nH]nc(-c2ccccc2)c1NC(=O)COc1ccc(Cl)cc1,-13,2.44
Cc1cccc(C(=O)N2CCCCCCN(C)C(=O)[C@@H]3CCC[C@@H]32)c1,-18,2.35
CCCN(CCC)/C(=N/S(=O)(=O)c1ccccc1)C(F)(F)F,-8,0.99
COC(=O)c1cc(CNc2cccnc2)cn1C,-1,0.28
COc1ccc(NC(=O)Cn2nc3c(N4CCC[C@H](C)C4)nccn3c2=O)c(OC)c1,-13,1.46
COc1ccc([C@H]2CN(C(=O)c3ccccc3-c3nnn[nH]3)C[C@@H]2N)cc1,-1,0.14
